These results are taken from the supplement of paper PMC8728848.

What all share (assay): glycan array binding signal (z-score within array); higher = stronger binding
Details in all cases: glycan notation: IUPAC condensed, linker removed

For test [1], the target named is Gal(b1-4)GlcNAc(b1-3)Gal(b1-4)Glc. In outline: (§1)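 The binding signal is a Z-score computed within each array. Data were drawn from 3228 arrays in the Consortium for Functional Glycomics database, restricted to those with a known protein sequence. Scores were averaged over arrays of the same protein sequence at different concentrations or buffers, and over linkers, and negative values can be taken as non-binding.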

The target in test [2] is Gal(b1-4)GlcNAc(b1-3)Gal(b1-4)GlcNAc. In outline:
as §1

In test [3] the target is Gal(b1-4)GlcNAc(b1-3)Gal(b1-4)GlcNAc(b1-2)Man(a1-3)[Gal(b1-4)GlcNAc(b1-3)Gal(b1-4)GlcNAc(b1-2)Man(a1-6)]Man(b1-4)GlcNAc(b1-4)GlcNAc. An outline of the steps: as §1
Test [4] has as its target Gal(b1-4)GlcNAc(b1-3)Gal(b1-4)GlcNAc(b1-2)Man(a1-3)[Gal(b1-4)GlcNAc(b1-3)Gal(b1-4)GlcNAc(b1-2)Man(a1-6)]Man(b1-4)GlcNAc(b1-4)[Fuc(a1-6)]GlcNAc. In outline: as §1
Test [5] concerns the target Gal(b1-4)GlcNAc(b1-3)Gal(b1-4)GlcNAc(b1-2)[Gal(b1-4)GlcNAc(b1-3)Gal(b1-4)GlcNAc(b1-6)]Man(a1-6)[Gal(b1-4)GlcNAc(b1-3)Gal(b1-4)GlcNAc(b1-2)Man(a1-3)]Man(b1-4)GlcNAc(b1-4)GlcNAc. In outline:
as §1

For test [6], the target named is Gal(b1-4)GlcNAc(b1-3)Gal(b1-4)GlcNAc(b1-2)[Gal(b1-4)GlcNAc(b1-3)Gal(b1-4)GlcNAc(b1-6)]Man(a1-6)[Gal(b1-4)GlcNAc(b1-3)Gal(b1-4)GlcNAc(b1-2)Man(a1-3)]Man(b1-4)GlcNAc(b1-4)[Fuc(a1-6)]GlcNAc. An outline of the steps:
as §1

Test [7] concerns the target Gal(b1-4)GlcNAc(b1-3)Gal(b1-4)GlcNAc(b1-3)Gal(b1-4)GlcNAc. An outline of the steps: as §1
Test [8] deals with Gal(b1-4)GlcNAc(b1-3)Gal(b1-4)GlcNAc(b1-3)Gal(b1-4)GlcNAc(b1-2)Man(a1-3)[Gal(b1-4)GlcNAc(b1-3)Gal(b1-4)GlcNAc(b1-3)Gal(b1-4)GlcNAc(b1-2)Man(a1-6)]Man(b1-4)GlcNAc(b1-4)GlcNAc. In outline: as §1
Test [9] deals with Gal(b1-4)GlcNAc(b1-3)Gal(b1-4)GlcNAc(b1-3)Gal(b1-4)GlcNAc(b1-2)Man(a1-3)[Gal(b1-4)GlcNAc(b1-3)Gal(b1-4)GlcNAc(b1-3)Gal(b1-4)GlcNAc(b1-2)Man(a1-6)]Man(b1-4)GlcNAc(b1-4)[Fuc(a1-6)]GlcNAc. In outline:
as §1

Test [10] concerns the target Gal(b1-4)GlcNAc(b1-3)Gal(b1-4)GlcNAc(b1-3)Gal(b1-4)GlcNAc(b1-2)[Gal(b1-4)GlcNAc(b1-3)Gal(b1-4)GlcNAc(b1-3)Gal(b1-4)GlcNAc(b1-6)]Man(a1-6)[Gal(b1-4)GlcNAc(b1-3)Gal(b1-4)GlcNAc(b1-3)Gal(b1-4)GlcNAc(b1-2)Man(a1-3)]Man(b1-4)GlcNAc(b1-4)[Fuc(a1-6)]GlcNAc. An outline of the steps: as §1
The target of test [11] is Gal(b1-4)GlcNAc(b1-3)Gal(b1-4)GlcNAc(b1-3)Gal(b1-4)GlcNAc(b1-3)Gal(b1-4)GlcNAc(b1-2)Man(a1-3)[Gal(b1-4)GlcNAc(b1-3)Gal(b1-4)GlcNAc(b1-3)Gal(b1-4)GlcNAc(b1-3)Gal(b1-4)GlcNAc(b1-2)Man(a1-6)]Man(b1-4)GlcNAc(b1-4)GlcNAc. In outline: as §1
Test [12] deals with Gal(b1-4)GlcNAc(b1-3)Gal(b1-4)GlcNAc(b1-3)Gal(b1-4)GlcNAc(b1-3)Gal(b1-4)GlcNAc(b1-2)Man(a1-3)[Gal(b1-4)GlcNAc(b1-3)Gal(b1-4)GlcNAc(b1-3)Gal(b1-4)GlcNAc(b1-3)Gal(b1-4)GlcNAc(b1-2)Man(a1-6)]Man(b1-4)GlcNAc(b1-4)[Fuc(a1-6)]GlcNAc. An outline of the steps: as §1
For test [13], the target named is Gal(b1-4)GlcNAc(b1-3)Gal(b1-4)GlcNAc(b1-3)Gal(b1-4)GlcNAc(b1-3)Gal(b1-4)GlcNAc(b1-2)[Gal(b1-4)GlcNAc(b1-3)Gal(b1-4)GlcNAc(b1-3)Gal(b1-4)GlcNAc(b1-3)Gal(b1-4)GlcNAc(b1-6)]Man(a1-6)[Gal(b1-4)GlcNAc(b1-3)Gal(b1-4)GlcNAc(b1-3)Gal(b1-4)GlcNAc(b1-3)Gal(b1-4)GlcNAc(b1-2)Man(a1-3)]Man(b1-4)GlcNAc(b1-4)[Fuc(a1-6)]GlcNAc. In outline: as §1
For test [14], the target named is Gal(b1-4)GlcNAc(b1-3)Gal(b1-4)GlcNAc(b1-3)Gal(b1-4)GlcNAc(b1-3)Gal(b1-4)GlcNAc(b1-3)Gal(b1-4)GlcNAc(b1-2)Man(a1-3)[Gal(b1-4)GlcNAc(b1-3)Gal(b1-4)GlcNAc(b1-3)Gal(b1-4)GlcNAc(b1-3)Gal(b1-4)GlcNAc(b1-3)Gal(b1-4)GlcNAc(b1-2)Man(a1-6)]Man(b1-4)GlcNAc(b1-4)GlcNAc. In outline: as §1
The target in test [15] is Gal(b1-4)GlcNAc(b1-3)Gal(b1-4)GlcNAc(b1-3)Gal(b1-4)GlcNAc(b1-3)Gal(b1-4)GlcNAc(b1-3)Gal(b1-4)GlcNAc(b1-2)Man(a1-3)[Gal(b1-4)GlcNAc(b1-3)Gal(b1-4)GlcNAc(b1-3)Gal(b1-4)GlcNAc(b1-3)Gal(b1-4)GlcNAc(b1-3)Gal(b1-4)GlcNAc(b1-2)Man(a1-6)]Man(b1-4)GlcNAc(b1-4)[Fuc(a1-6)]GlcNAc. In outline: as §1
The target of test [16] is Gal(b1-4)GlcNAc(b1-3)Gal(b1-4)GlcNAc(b1-3)Gal(b1-4)GlcNAc(b1-3)Gal(b1-4)GlcNAc(b1-3)Gal(b1-4)GlcNAc(b1-2)[Gal(b1-4)GlcNAc(b1-3)Gal(b1-4)GlcNAc(b1-3)Gal(b1-4)GlcNAc(b1-3)Gal(b1-4)GlcNAc(b1-3)Gal(b1-4)GlcNAc(b1-6)]Man(a1-6)[Gal(b1-4)GlcNAc(b1-3)Gal(b1-4)GlcNAc(b1-3)Gal(b1-4)GlcNAc(b1-3)Gal(b1-4)GlcNAc(b1-3)Gal(b1-4)GlcNAc(b1-2)Man(a1-3)]Man(b1-4)GlcNAc(b1-4)[Fuc(a1-6)]GlcNAc. In outline:
as §1

For test [17], the target named is Gal(b1-4)GlcNAc(b1-3)Gal(b1-4)GlcNAc(b1-3)Gal(b1-4)GlcNAc(b1-3)Gal(b1-4)GlcNAc(b1-3)Gal(b1-4)GlcNAc(b1-3)Gal(b1-4)GlcNAc(b1-2)Man(a1-3)[Gal(b1-4)GlcNAc(b1-3)Gal(b1-4)GlcNAc(b1-3)Gal(b1-4)GlcNAc(b1-3)Gal(b1-4)GlcNAc(b1-3)Gal(b1-4)GlcNAc(b1-3)Gal(b1-4)GlcNAc(b1-2)Man(a1-6)]Man(b1-4)GlcNAc(b1-4)GlcNAc. In outline: as §1
Test [18] addresses Gal(b1-4)GlcNAc(b1-3)Gal(b1-4)GlcNAc(b1-3)GalNAc. In outline: as §1
Test [19] addresses Gal(b1-4)GlcNAc(b1-3)Gal(b1-4)GlcNAc(b1-3)[Gal(b1-4)GlcNAc(b1-3)Gal(b1-4)GlcNAc(b1-6)]GalNAc. An outline of the steps: as §1

The other results are listed elsewhere or left out.

B1: OGAA (protein)
chain: MVQKESQATLEERESELSSNPAASAGASLEPPAAPAPGEDNPAGAGGAAVAGAAGGARRFLCGVVEGFYGRPWVMEQRKELFRRLQKWELNTYLYAPKDDYKHRMFWREMYSVEEAEQLMTLISAAREYEIEFIYAISPGLDITFSNPKEVSTLKRKLDQVSQFGCRSFALLFADIDHNMCAADKEVFSSFAHAQVSITNEIYQYLGEPETFLFCPTEYCGTFCYPNVSQSPYLRTVGEKLLPGIEVLWTGPKVVSKEIPVESIEEVSKIIKRAPVIWDNIHANDYDQKRLFLGPYKGRSTELIPRLKGVLTNPNCEFEANYVAIHTLATWYKSNMNGVRKDVVMTDSEDSTVSIQIKLENEGSDEDIETDVLYSPQMALKLALTEWLQEFGVPHQY
Take B1: the “glycan array binding signal (z-score)” value in test [1] was -0.1; in test [2], -0.093; in test [3], 0.053; in test [4], 0.021; in test [5], -0.077; in test [6], 0.002. The “glycan array binding signal (z-score)” value is -0.099 in test [7]; -0.045 in test [8]; -0.013 in test [9]; -0.002 in test [10]; -0.04 in test [11]; -0.067 in test [12]. In addition, the “glycan array binding signal (z-score)” value was -0.072 in test [13]; -0.014 in test [14]; -0.04 in test [15]; 0.078 in test [16]; 0.017 in test [17]; -0.081 in test [18]. Besides, the “glycan array binding signal (z-score)” value in [19] was -0.071.
